According to the supplement of paper PMC12645437, “Orthogonal IMiD-Degron Pairs Induce Selective Protein Degradation in Cells” (ACS Chemical Biology, 2025):
This is one part of the list.
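Also: jurkat cells carrying a lentiviral library of mutant zinc finger degrons fused to EGFP plus mCherry, mCherry+ cells FACS sorted, degron abundance counted by next-generation sequencing.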

What follows are sequences tested against no compound (DMSO) (assay: log2 fold change of degron read counts, EGFP-low vs EGFP+ sorted cells; higher = lower degron-EGFP level without compound (poor expression or instability)). Details: compound: DMSO control; 18 h.
In the case of FWCPVCGAYFTQKGNLLRHIKL, the “log2 fold change of degron read counts” value is reported as 1.84.
LTCPICGFPCTQKGNLLRHIKL was tested, and the “log2 fold change of degron read counts” value was 1.7.
FMCNQCGRGFTQKGNLLRHIKL was tested, and the “log2 fold change of degron read counts” value was -0.554.
LLCEICGFCCTQKGNLLRHIKL was tested, and the “log2 fold change of degron read counts” value was 0.615.
FICNQCGRQFTQKGNLLRHIKL was tested, and the “log2 fold change of degron read counts” value was -0.591.
With LQCEICGFKCTQKGNLLRHIKL the “log2 fold change of degron read counts” value was -0.755.
In the case of LQCPICGFMCTQKGNLLRHIKL, the “log2 fold change of degron read counts” value is reported as 0.875.
FKCDQCGAKFTQKGNLLRHIKL was tested, and the “log2 fold change of degron read counts” value was -1.94.
For FMCPICGHWFTQKGNLLRHIKL, the “log2 fold change of degron read counts” value was 0.587.
LFCEICGFWCTQKGNLLRHIKL was tested, and the “log2 fold change of degron read counts” value was 1.34.
For FACDVCGAEFTQKGNLLRHIKL, the “log2 fold change of degron read counts” value was -2.01.
With FECEVCGAHFTQKGNLLRHIKL the “log2 fold change of degron read counts” value was -1.1.
In the case of FGCDQCGAQFTQKGNLLRHIKL, the “log2 fold change of degron read counts” value is reported as -0.775.
For FLCPICGHKFTQKGNLLRHIKL, the “log2 fold change of degron read counts” value was -0.627.
In the case of LSCPICGFSCTQKGNLLRHIKL, the “log2 fold change of degron read counts” value is reported as 0.719.
In the case of FHCPICGAKFTQKGNLLRHIKL, the “log2 fold change of degron read counts” value is reported as -0.606.
With FACPVCGADFTQKGNLLRHIKL the “log2 fold change of degron read counts” value was -0.501.
FECNICGANFTQKGNLLRHIKL was tested, and the “log2 fold change of degron read counts” value was -1.32.
For FECNQCGAIFTQKGNLLRHIKL, the “log2 fold change of degron read counts” value was -1.28.
For LACNQCGFTCTQKGNLLRHIKL, the “log2 fold change of degron read counts” value was -0.00727.
With FLCEQCGADFTQKGNLLRHIKL the “log2 fold change of degron read counts” value was -1.23.
With LYCNQCGFGCTQKGNLLRHIKL the “log2 fold change of degron read counts” value was 1.18.
FSCDQCGASFTQKGNLLRHIKL was tested, and the “log2 fold change of degron read counts” value was -3.5.
With FRCDVCGANFTQKGNLLRHIKL the “log2 fold change of degron read counts” value was -1.5.
In the case of FGCSVCGHCFTQKGNLLRHIKL, the “log2 fold change of degron read counts” value is reported as 0.164.
For FFCPVCGAAFTQKGNLLRHIKL, the “log2 fold change of degron read counts” value was 0.271.
FMCEQCGAGFTQKGNLLRHIKL was tested, and the “log2 fold change of degron read counts” value was -2.58.
FGCSVCGHTFTQKGNLLRHIKL was tested, and the “log2 fold change of degron read counts” value was -0.661.
In the case of FSCDVCGATFTQKGNLLRHIKL, the “log2 fold change of degron read counts” value is reported as -1.51.
In the case of FRCSVCGHFFTQKGNLLRHIKL, the “log2 fold change of degron read counts” value is reported as 0.28.
In the case of FSCDVCGAWFTQKGNLLRHIKL, the “log2 fold change of degron read counts” value is reported as -1.68.
In the case of FQCEICGANFTQKGNLLRHIKL, the “log2 fold change of degron read counts” value is reported as -1.13.
